Assay results as given in PubChem BioAssay AID504332 (National Center for Advancing Translational Sciences (NCATS), 2011).
Among all 350,000 compounds or so, about 31,000 (8.9%) were called active. The shares of active, inactive and inconclusive entries below differ from those in the screen. Calls come from the whole dose curve; as a rule, active = well fitted inhibition curve with a large enough effect; inconclusive = small, poorly fitted or top-dose-only effect; inactive = no such curve, though single readings can be large or run the other way. Potencies beside an inconclusive call are fits to weak or partial responses and may not hold up.

Each molecule was assayed against Histone-lysine N-methyltransferase EHMT2 (Homo sapiens) (UniProt Q96KQ7) (assay: qHTS Assay for Inhibitors of Histone Lysine Methyltransferase G9a). Details: G9a H3K9 monomethylation, AlphaScreen, 2 h; activity, negative = inhibition: at 59 µM (top of the series) unless noted.
Outline: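 Compounds were preincubated with 20 nM G9a for 15 min, after which biotinylated H3K9 peptide (500 nM) and SAM (20 uM) started a 2 h room-temperature reaction. Monomethylated product was quantified by antibody-based AlphaScreen chemiluminescence.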
% is set by controls: 0 for no effect and ±100 for the full control effect; potency is the fitted concentration of half-maximal effect; tags give direction and shape of the fitted curve.
Note: nearly all actives have a fitted effect of over 75% in size.

UniProt Q96KQ7, sequence (Q96KQ7 whole entry, looked up): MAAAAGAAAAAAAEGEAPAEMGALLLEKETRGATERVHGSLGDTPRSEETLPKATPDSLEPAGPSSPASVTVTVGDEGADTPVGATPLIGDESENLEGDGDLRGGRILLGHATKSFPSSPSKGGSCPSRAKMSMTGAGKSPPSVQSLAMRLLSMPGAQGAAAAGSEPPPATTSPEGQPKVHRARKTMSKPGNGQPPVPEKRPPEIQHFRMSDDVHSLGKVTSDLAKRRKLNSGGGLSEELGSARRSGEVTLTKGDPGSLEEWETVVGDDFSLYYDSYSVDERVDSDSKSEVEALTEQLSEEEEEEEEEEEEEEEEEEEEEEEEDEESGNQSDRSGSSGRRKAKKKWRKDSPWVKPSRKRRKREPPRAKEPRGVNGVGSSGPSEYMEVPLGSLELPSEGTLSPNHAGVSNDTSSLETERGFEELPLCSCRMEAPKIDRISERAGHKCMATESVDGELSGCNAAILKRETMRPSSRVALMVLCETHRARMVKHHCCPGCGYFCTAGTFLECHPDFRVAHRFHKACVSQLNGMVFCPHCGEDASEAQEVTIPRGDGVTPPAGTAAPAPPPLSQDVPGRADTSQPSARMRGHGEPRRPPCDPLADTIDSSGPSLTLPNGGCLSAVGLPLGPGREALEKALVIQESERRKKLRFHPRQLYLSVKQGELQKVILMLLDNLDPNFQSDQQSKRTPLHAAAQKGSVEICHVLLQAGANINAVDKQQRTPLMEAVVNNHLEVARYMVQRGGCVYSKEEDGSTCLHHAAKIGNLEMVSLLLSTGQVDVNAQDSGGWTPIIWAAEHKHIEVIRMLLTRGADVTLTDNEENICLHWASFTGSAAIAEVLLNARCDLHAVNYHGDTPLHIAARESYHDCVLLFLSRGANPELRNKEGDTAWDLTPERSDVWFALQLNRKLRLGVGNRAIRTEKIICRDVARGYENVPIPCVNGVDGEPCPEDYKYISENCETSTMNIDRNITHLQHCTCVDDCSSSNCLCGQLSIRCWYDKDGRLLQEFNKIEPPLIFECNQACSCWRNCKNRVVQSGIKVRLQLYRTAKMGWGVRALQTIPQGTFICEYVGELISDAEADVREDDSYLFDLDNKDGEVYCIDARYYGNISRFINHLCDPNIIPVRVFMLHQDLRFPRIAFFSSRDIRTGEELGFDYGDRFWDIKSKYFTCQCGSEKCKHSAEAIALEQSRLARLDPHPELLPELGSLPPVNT

| Structure (SMILES) | Potency | activity, negative = inhibition |
| --- | --- | --- |
| CCN(CC)S(=O)(=O)c1cc(C(=O)NCCN2CCOCC2)ccc1Cl | inconclusive: 70.8 µM [inhibitor, single point] | – |
| O=[N+]([O-])c1cccnc1N1CCN(c2ccc(F)cc2)CC1 | active: 44.7 µM | – |
| CCN(c1cccc(C)c1)C1C(=O)c2ccccc2N1C(C)=O (centres undefined) | inconclusive: 44.7 µM [inhibitor, partial curve, poor fit] | – |
| CCOCCCNC(=O)CNC(=S)N(Cc1ccc(C)cc1)Cc1ccco1 | active: 10 µM | – |
| Cc1ccccc1C1c2[nH]c3ccccc3c2CCN1CCCn1cccn1 (centres undefined) | inconclusive: 17.8 µM [inhibitor, partial curve] | – |
| COc1cccc(CNC(=O)CN(C)S(=O)(=O)c2cccc3cccnc23)c1 | inactive | – |
| S=C(NCCc1ccccc1)N1CCCCC1 | inactive | – |
| c1ccc(Nc2cc(-c3ccccc3)nc3ncnn23)cc1 | inconclusive: 2 µM [inhibitor, full curve, poor fit] | – |
| CCN(CC)S(=O)(=O)c1cc(F)ccc1OC | inactive | – |
| O=C(Nc1ccc(F)cc1)C1CCN(c2nc3ccccc3nc2C(F)(F)F)CC1 | inactive | – |
| C#Cc1ccc([C@@H]2C=C(C(=O)N3CCOCC3)O[C@H](OCCCCO)C2)cc1 | – | inconclusive: -66.7% [inhibitor] |
| C[C@]12CC[C@@H](O)C[C@@H]1CC[C@@H]1[C@@H]2CC[C@]2(C)C=CC[C@@H]12 | inactive | – |
| Cc1ccc(S(=O)(=O)c2c(C)nn(-c3ccccc3)c2OC(=O)c2ccco2)cc1 | inconclusive: 39.8 µM [inhibitor, single point] | – |
| N/C(=N\OS(=O)(=O)c1ccc(Cl)cc1)c1ccccn1 | active: 2 µM | – |
| Cc1cccc(COCC(CC(C)C)N2CCN(C(=O)c3ccc(C(F)(F)F)cc3)CCC2=O)c1 (centres undefined) | inconclusive: 44.7 µM [inhibitor, partial curve] | – |
| O=C(CSc1ccc(-c2ccco2)nn1)c1ccc(F)cc1 | active: 39.8 µM | – |
| COc1cccc(N2CCN(C(=O)/C=C/c3ccco3)CC2)c1 | active: 28.2 µM | – |

| Structure (SMILES) | Potency | activity, negative = inhibition |
| --- | --- | --- |
| COc1ccc(NC(=O)C2=C(C)Nc3nc(SCc4ccc(C)cc4C)nn3C2c2cccc(OC)c2OC)cc1 (centres undefined) | inactive | – |
| Cc1ccc(C(=O)Nc2ccc(N3CCOCC3)c3nonc23)cc1[N+](=O)[O-] | inconclusive: 89.1 µM [inhibitor, single point] | – |
| C#CCOCCOCCOCCNc1nc(N2CCN(C(=O)[C@H](Cc3ccc(O)cc3)n3cc(C(N)CC(C)C)nn3)CC2)nc(N2CCN(C(=O)[C@H](CCC(=O)O)n3cc(C(N)[C@H](C)CC)nn3)CC2)n1 (some centres undefined) | – | inconclusive: -94.9% [inhibitor] |
| Cc1cc(C)c(C)c(S(=O)(=O)NCC(=O)Nc2ccccc2F)c1C | inconclusive: 15.8 µM [inhibitor, partial curve, poor fit] | – |
| FC(F)(F)c1cccc(Cc2noc(CN3CCC(N4CCCCC4)CC3)n2)c1 | inconclusive: 0.398 µM [inhibitor, partial curve, poor fit] | – |
| CN(C)CCCN1C(=O)c2oc3ccc(F)cc3c(=O)c2C1c1cccnc1 (centres undefined) | inconclusive: 63.1 µM [inhibitor, partial curve, poor fit] | – |
| C#CCNC(=O)C1=C[C@@H](c2ccc(C(F)(F)F)cc2)[C@H](CCCO)[C@@H](OCC)O1 | inactive | – |
| COc1ccccc1NC(=O)c1sc2nc(-c3cc4cc(Cl)ccc4oc3=O)[nH]c(=O)c2c1C | inactive | – |
| COc1ccc(S(=O)(=O)N2CCCCC2)cc1NC(=O)c1c(F)cccc1Cl | inconclusive: 70.8 µM [inhibitor, partial curve] | – |
| N#Cc1ccc(CN2CC3(CCN(C(=O)c4cc(C(F)(F)F)cc(C(F)(F)F)c4)CC3)C2)cc1 | – | inactive: -0.784% [at 12.7 µM] |
| Cc1ccc(Nc2nc(N)nc(CSC(=S)N3CCOCC3)n2)cc1 | inconclusive: 22.4 µM [inhibitor, partial curve, poor fit] | – |
| CC1=C(C(=O)OC2CCCCC2)C(c2cccnc2)n2nnnc2N1 (centres undefined) | inconclusive: 50.1 µM [inhibitor, partial curve, poor fit] | – |
| Cc1ccc(/C=C(\C#N)C(=O)Nc2cccc3ncccc23)o1 | inconclusive: 8.91 µM [inhibitor, partial curve, poor fit] | – |
| CCc1ccc(NC(=O)CC2C(=O)N(c3cccc(C)c3)C(=O)N2Cc2cccc(OC)c2)cc1 (centres undefined) | inactive | – |
| COc1ccc(Nc2nc(N3CCCC3)c3ccccc3n2)cc1 | – | inactive: -42% [at 12.7 µM] |
| O=C(CN1C(=O)NC(Cc2ccccc2)C1=O)Nc1ccc(OC(F)(F)F)cc1 (centres undefined) | inconclusive: 7.08 µM [inhibitor, full curve, poor fit] | – |
| Cc1ccccc1NC(=O)c1sc(NC(=O)COc2ccccc2)c(C#N)c1C | inconclusive: 39.8 µM [inhibitor, single point] | – |
